{
  "source": "paper PMC4336329",
  "about": "(PLoS ONE, 2015)",
  "note": "Out of some 310,000 compounds screened, about 14,000 (4.5%) showed an effect of 50% or more. Effects have a minus sign here. Some of the results follow.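 Note: peak tail current of the secondary pulse compared with the same well before compound.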",
  "data": [
    {"molecular_target": "human ether-à-go-go-related gene (hERG) potassium channel (human, UniProt Q12809)", "sequence (Q12809 whole entry, looked up)": "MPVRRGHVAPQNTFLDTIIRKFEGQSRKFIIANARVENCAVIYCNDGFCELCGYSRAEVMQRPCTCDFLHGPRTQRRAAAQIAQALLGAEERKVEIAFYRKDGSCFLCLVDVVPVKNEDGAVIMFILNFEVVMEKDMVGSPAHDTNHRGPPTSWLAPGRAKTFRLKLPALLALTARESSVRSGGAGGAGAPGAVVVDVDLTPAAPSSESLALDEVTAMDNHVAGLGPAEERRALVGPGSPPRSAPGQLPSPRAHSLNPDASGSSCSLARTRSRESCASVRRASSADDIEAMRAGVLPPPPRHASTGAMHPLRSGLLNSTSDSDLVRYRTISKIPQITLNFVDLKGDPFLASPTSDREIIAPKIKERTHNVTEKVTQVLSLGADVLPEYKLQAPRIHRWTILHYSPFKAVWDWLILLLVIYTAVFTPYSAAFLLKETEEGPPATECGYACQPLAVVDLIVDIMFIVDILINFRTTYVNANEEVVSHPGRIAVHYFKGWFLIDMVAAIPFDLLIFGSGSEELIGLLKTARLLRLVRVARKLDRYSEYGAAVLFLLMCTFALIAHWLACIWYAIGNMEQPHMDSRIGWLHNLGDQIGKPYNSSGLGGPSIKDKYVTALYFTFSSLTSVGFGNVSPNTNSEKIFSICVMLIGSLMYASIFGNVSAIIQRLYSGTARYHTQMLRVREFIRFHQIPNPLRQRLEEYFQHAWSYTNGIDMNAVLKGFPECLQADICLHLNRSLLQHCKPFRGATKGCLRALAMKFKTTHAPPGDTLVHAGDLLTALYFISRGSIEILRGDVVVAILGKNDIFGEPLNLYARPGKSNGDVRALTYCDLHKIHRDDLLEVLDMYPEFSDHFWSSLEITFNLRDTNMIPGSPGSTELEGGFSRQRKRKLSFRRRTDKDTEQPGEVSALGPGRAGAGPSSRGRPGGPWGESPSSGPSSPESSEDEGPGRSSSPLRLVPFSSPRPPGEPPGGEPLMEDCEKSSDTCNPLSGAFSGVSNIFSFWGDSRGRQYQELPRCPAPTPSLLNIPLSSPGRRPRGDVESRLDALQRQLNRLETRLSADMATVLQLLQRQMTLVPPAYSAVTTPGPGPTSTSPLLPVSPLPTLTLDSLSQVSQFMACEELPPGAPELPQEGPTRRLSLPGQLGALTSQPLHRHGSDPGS", "experiment": "primary screen, population patch clamp on CHO cells stably expressing hERG", "units": {"hERG current change (%, negative = inhibition) at 10uM": "%"}, "values": [
      {"smiles": "CC(C)COC(=O)n1c(SCC(N)=O)nc2ccccc21", "hERG current change (%, negative = inhibition) at 10uM": -10.8},
      {"smiles": "CCN(CC(=O)Nc1c(F)cccc1F)C(=O)c1ccc(N2CCCC2)c([N+](=O)[O-])c1", "hERG current change (%, negative = inhibition) at 10uM": -20.1},
      {"smiles": "COc1ccc(CCNC(=O)Cn2nnc(-c3ccc(N(C)C)cc3)n2)cc1OC", "hERG current change (%, negative = inhibition) at 10uM": 5.11},
      {"smiles": "CS(=O)(=O)c1ccc(Cl)c(C(=O)Nc2ccc3nc(N4CCOCC4)sc3c2)c1", "hERG current change (%, negative = inhibition) at 10uM": 8.12},
      {"smiles": "COc1cc(SC)ccc1C(=O)N1CCN(Cc2ccc3c(c2)OCO3)CC1", "hERG current change (%, negative = inhibition) at 10uM": -34.3},
      {"smiles": "CC(O)c1nc2ccccc2n1CC(=O)Nc1ccc2c(c1)OCCO2", "note": "(stereo not shown)", "hERG current change (%, negative = inhibition) at 10uM": -4.28},
      {"smiles": "C=C1CCN([C@@H](CC(C)C)C(=O)NCc2ccc(OC)cc2)S(=O)(=O)c2ccccc21", "hERG current change (%, negative = inhibition) at 10uM": -24.9},
      {"smiles": "CCSC(C)CC1C/C(=N/O)c2c(C)noc2C1", "note": "(stereo not shown)", "hERG current change (%, negative = inhibition) at 10uM": -63.4},
      {"smiles": "CCn1nnnc1SCC(=O)c1cccc(OC)c1", "hERG current change (%, negative = inhibition) at 10uM": 6.45},
      {"smiles": "CCCCCCCCC(=O)NCCOc1ccc(OC)cc1", "hERG current change (%, negative = inhibition) at 10uM": 0.912},
      {"smiles": "Cc1c(C(=O)O)sc2ncn(C)c(=O)c12", "hERG current change (%, negative = inhibition) at 10uM": 10.5},
      {"smiles": "CN(Cc1nccn1C)C(=O)C1CCC(=O)N(CCc2ccc(Cl)cc2)C1", "note": "(stereo not shown)", "hERG current change (%, negative = inhibition) at 10uM": -53.8},
      {"smiles": "COc1ccc(C(=O)CSc2n[nH]c(=O)n2Cc2ccco2)cc1", "hERG current change (%, negative = inhibition) at 10uM": -0.235},
      {"smiles": "CC1=CN2C(=NC(=O)CC2(C)C(=O)N(CC(=O)NC2CCCC2)c2ccccc2C)C=C1", "note": "(stereo not shown)", "hERG current change (%, negative = inhibition) at 10uM": 8.47},
      {"smiles": "CSCCC(NC(=O)c1ccccc1Cl)C(=O)Nc1ccc(C)c(S(=O)(=O)N2CCOCC2)c1", "note": "(stereo not shown)", "hERG current change (%, negative = inhibition) at 10uM": -5.23},
      {"smiles": "CCCCNC(=O)COC(=O)c1cc(F)c(F)cc1Cl", "hERG current change (%, negative = inhibition) at 10uM": 13.6},
      {"smiles": "COc1ccccc1NC(=O)/C(=C/c1ccncc1)NC(=O)c1ccccc1", "hERG current change (%, negative = inhibition) at 10uM": -10.6},
      {"smiles": "CCN1CCCC1CNC(=O)c1cc(S(=O)(=O)N(C)C)ccc1Cl", "note": "(stereo not shown)", "hERG current change (%, negative = inhibition) at 10uM": 8.24},
      {"smiles": "CCOc1cc(CNCCSc2nnnn2C)cc(Br)c1OCc1ccccc1F.Cl", "hERG current change (%, negative = inhibition) at 10uM": -22.3},
      {"smiles": "Cc1nc(SCc2ccc(O)c([N+](=O)[O-])c2)n[nH]1", "hERG current change (%, negative = inhibition) at 10uM": 13.9},
      {"smiles": "COc1cc(OC)cc(C(=O)NCCCN2CCN(CCCNC(=O)c3cc(OC)cc(OC)c3)CC2)c1", "hERG current change (%, negative = inhibition) at 10uM": -48.8},
      {"smiles": "CC(=O)Nc1nc(CC(C)C)cc(-c2ccccc2)c1C#N", "hERG current change (%, negative = inhibition) at 10uM": 4.98},
      {"smiles": "CC(C)(O)C#Cc1ccc(C(=O)N2CCN(C(=O)c3ccco3)CC2)cc1", "hERG current change (%, negative = inhibition) at 10uM": -2.64},
      {"smiles": "Cc1cc(C)c2nc(N3CCC(C(=O)NCCN4CCOCC4)CC3)sc2c1", "hERG current change (%, negative = inhibition) at 10uM": -10.5},
      {"smiles": "N#Cc1ccc(C(=O)Nc2ccn(-c3ccccc3)n2)cc1", "hERG current change (%, negative = inhibition) at 10uM": -15.9},
      {"smiles": "Cc1ccc(S(=O)(=O)N(C)C)cc1NC(=S)NNC(=O)C1CC1", "hERG current change (%, negative = inhibition) at 10uM": -54.6},
      {"smiles": "CCn1nc(C)c(CN2CCC(C(=O)Nc3cccc(-c4cccc(Cl)c4)c3)CC2)c1C", "hERG current change (%, negative = inhibition) at 10uM": -65},
      {"smiles": "CCCCN(CC)C(=O)Cn1cnc2ccc(S(=O)(=O)N3CCC(C)CC3)cc2c1=O", "hERG current change (%, negative = inhibition) at 10uM": -57},
      {"smiles": "O=C(O)c1ccccc1NS(=O)(=O)c1ccccc1C(F)(F)F", "hERG current change (%, negative = inhibition) at 10uM": 3.88},
      {"smiles": "O=C(Nc1ccc2c(c1)CCC2)c1cc2ccccc2o1", "hERG current change (%, negative = inhibition) at 10uM": -0.479},
      {"smiles": "CCc1cc(C(=O)c2ccc(OC)cc2)c(NC(=O)CCC(=O)O)s1", "hERG current change (%, negative = inhibition) at 10uM": 2.58},
      {"smiles": "Cc1ccc2nc(C)c(C(=O)N/N=C/c3cccc([N+](=O)[O-])c3)cc2c1", "hERG current change (%, negative = inhibition) at 10uM": -37.1},
      {"smiles": "COc1cccc(NC(=O)CSCc2n[nH]c(=O)[nH]2)c1", "hERG current change (%, negative = inhibition) at 10uM": 19.4},
      {"smiles": "Cc1c(C(=O)N2CCOCC2)sc(NC(=O)c2ccc3c(c2)OCO3)c1C#N", "hERG current change (%, negative = inhibition) at 10uM": 8.15},
      {"smiles": "CCN1CCN(C(c2ccccc2)c2nnnn2Cc2ccccc2)CC1.Cl", "note": "(stereo not shown)", "hERG current change (%, negative = inhibition) at 10uM": -27.4},
      {"smiles": "O=C(N/N=C1/CC2CCC1C2)c1cc2ccccc2cc1O", "note": "(stereo not shown)", "hERG current change (%, negative = inhibition) at 10uM": 10.6},
      {"smiles": "Cc1c(NC(=O)CSc2nnc(-c3ccco3)n2-c2ccccc2)c(=O)n(-c2ccccc2)n1C", "hERG current change (%, negative = inhibition) at 10uM": 5.6},
      {"smiles": "O=C(N/C(=C\\c1ccco1)C(=O)N1CCCC1)c1cccs1", "hERG current change (%, negative = inhibition) at 10uM": -9.62},
      {"smiles": "CC(=O)c1ccc(NC(=O)CN2C(=O)NC(C)(c3ccc4c(c3)OCCO4)C2=O)cc1", "note": "(stereo not shown)", "hERG current change (%, negative = inhibition) at 10uM": 1.1},
      {"smiles": "Cc1csc(NC(=O)c2ccc(C)o2)n1", "hERG current change (%, negative = inhibition) at 10uM": 6.8},
      {"smiles": "O=C(COc1ccc(S(=O)(=O)N2CCCC2)cc1[N+](=O)[O-])N1CCCC1", "hERG current change (%, negative = inhibition) at 10uM": -4.62},
      {"smiles": "CCCC1(C(=O)OCC)NC(c2ccc(OC)cc2OC)C2C(=O)N(c3ccccc3)C(=O)C21", "note": "(stereo not shown)", "hERG current change (%, negative = inhibition) at 10uM": 0.0733},
      {"smiles": "CC(=O)NC1Sc2ccccc2N=C1c1ccccc1", "note": "(stereo not shown)", "hERG current change (%, negative = inhibition) at 10uM": 14.1},
      {"smiles": "COc1ccc(C)cc1NC(=O)C(Sc1ccccc1)c1ccccc1", "note": "(stereo not shown)", "hERG current change (%, negative = inhibition) at 10uM": 2.29},
      {"smiles": "Cc1ccc(C)c(CN2CCC(CNC(=O)CCc3nnc4ccc(N5CCCCC5)nn34)CC2)c1", "hERG current change (%, negative = inhibition) at 10uM": -30.3},
      {"smiles": "Cn1c(=O)c2cc(S(=O)(=O)NCCC(=O)NCCC3=CCCCC3)ccc2n(C)c1=O", "hERG current change (%, negative = inhibition) at 10uM": -15.8},
      {"smiles": "Clc1cccc(Cl)c1OCCOCCNCc1ccccc1.O=C(O)C(=O)O", "hERG current change (%, negative = inhibition) at 10uM": -31.2},
      {"smiles": "Cc1cccc(NC(=S)NC(=O)/C=C/c2ccco2)c1", "hERG current change (%, negative = inhibition) at 10uM": 4.02},
      {"smiles": "COc1ccc(NC(=O)Nc2ccon2)cc1OC", "hERG current change (%, negative = inhibition) at 10uM": -5.22},
      {"smiles": "O=[N+]([O-])c1ccc(N2CCN(c3ccccc3)CC2)cc1", "hERG current change (%, negative = inhibition) at 10uM": 4.77},
      {"smiles": "OC[C@H]1O[C@@H](n2cnc3c(NC4CCCC4)ncnc32)[C@H](O)[C@@H]1O", "hERG current change (%, negative = inhibition) at 10uM": 10.4},
      {"smiles": "Cc1cccc(C(=O)N2N=C(c3ccc(NS(C)(=O)=O)cc3)CC2c2cccs2)c1", "note": "(stereo not shown)", "hERG current change (%, negative = inhibition) at 10uM": -8.44},
      {"smiles": "COc1ccc(-c2cc(-c3ccccc3)n3ncnc3n2)cc1", "hERG current change (%, negative = inhibition) at 10uM": -60.9},
      {"smiles": "Cc1ccc(C2(C)NC(=O)N(CC(=O)NNC(=O)c3ccoc3C)C2=O)cc1", "note": "(stereo not shown)", "hERG current change (%, negative = inhibition) at 10uM": 26.6},
      {"smiles": "COCCCn1c(C)nnc1SCC(=O)NNC(=O)COc1ccc(Cl)cc1", "hERG current change (%, negative = inhibition) at 10uM": 22.6}
    ]}
  ]
}
